The values that follow come from article PMC12215836.

By UniProt entry, the sequences of proteins in these tests, tags left out.
UniProt P27540: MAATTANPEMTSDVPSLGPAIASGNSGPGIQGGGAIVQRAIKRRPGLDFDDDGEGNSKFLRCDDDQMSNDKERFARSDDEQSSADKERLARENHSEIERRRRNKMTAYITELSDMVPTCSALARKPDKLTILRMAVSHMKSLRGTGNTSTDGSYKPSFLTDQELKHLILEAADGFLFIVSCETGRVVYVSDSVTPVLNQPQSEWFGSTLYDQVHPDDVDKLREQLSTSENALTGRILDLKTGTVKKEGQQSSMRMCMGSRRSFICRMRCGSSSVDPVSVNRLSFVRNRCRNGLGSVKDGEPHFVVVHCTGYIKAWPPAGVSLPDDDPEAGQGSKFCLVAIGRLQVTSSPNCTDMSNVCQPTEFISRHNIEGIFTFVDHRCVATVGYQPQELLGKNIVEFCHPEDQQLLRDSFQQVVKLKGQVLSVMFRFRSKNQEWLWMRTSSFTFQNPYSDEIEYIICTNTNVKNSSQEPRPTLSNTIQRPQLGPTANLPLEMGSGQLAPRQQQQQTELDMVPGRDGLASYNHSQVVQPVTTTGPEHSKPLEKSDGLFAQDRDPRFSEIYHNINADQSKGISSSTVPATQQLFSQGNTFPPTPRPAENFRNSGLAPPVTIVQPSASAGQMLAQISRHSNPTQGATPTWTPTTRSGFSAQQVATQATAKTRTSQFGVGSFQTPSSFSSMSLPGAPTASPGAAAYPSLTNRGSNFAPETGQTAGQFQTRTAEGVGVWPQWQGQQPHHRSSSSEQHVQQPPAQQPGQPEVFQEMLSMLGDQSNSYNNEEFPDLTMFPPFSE
UniProt O00327: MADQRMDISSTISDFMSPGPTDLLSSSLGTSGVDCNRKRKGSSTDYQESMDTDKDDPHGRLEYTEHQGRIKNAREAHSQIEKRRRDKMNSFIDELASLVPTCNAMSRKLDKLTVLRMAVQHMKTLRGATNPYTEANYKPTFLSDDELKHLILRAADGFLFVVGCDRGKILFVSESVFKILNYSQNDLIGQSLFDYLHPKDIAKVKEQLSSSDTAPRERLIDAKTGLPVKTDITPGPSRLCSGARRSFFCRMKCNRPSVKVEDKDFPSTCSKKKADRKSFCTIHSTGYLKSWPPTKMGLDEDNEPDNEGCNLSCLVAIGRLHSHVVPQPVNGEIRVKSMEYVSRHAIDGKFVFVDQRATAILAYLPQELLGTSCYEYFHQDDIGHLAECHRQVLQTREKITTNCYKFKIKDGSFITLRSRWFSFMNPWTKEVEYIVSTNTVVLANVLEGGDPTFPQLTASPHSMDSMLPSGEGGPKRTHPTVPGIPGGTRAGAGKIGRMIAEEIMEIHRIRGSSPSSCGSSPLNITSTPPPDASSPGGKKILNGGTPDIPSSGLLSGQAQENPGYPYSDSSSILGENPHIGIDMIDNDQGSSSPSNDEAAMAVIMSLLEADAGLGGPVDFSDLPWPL

The target in one assay is ARNT-FLAG (UniProt P27540). The experiment in a line: co-IP; 786O cells transfected with FLAG-tagged bHLH-PAS proteins; RIPA lysates, anti-Flag M2 agarose beads; endogenous HIF2α and CLOCK detected by immunoblot; cells at 3% O2 for 4 h or 21% O2 before lysis. (In general: Immunoblotting shows a protein as a band on a membrane.)
A further assay concerns the target BMAL1-FLAG (UniProt O00327). The assay is described as above.

Results are given in words; binding and its absence hold for the method and conditions named. Binding seen in cells or lysates may run through a third protein. Some entries that bind do so weakly or less than the wild type.

B1: endogenous CLOCK (786O cells) (protein, UniProt O15516 1-846)
chain: MLFTVSCSKMSSIVDRDDSSIFDGLVEEDDKDKAKRVSRNKSEKKRRDQFNVLIKELGSMLPGNARKMDKSTVLQKSIDFLRKHKEITAQSDASEIRQDWKPTFLSNEEFTQLMLEALDGFFLAIMTDGSIIYVSESVTSLLEHLPSDLVDQSIFNFIPEGEHSEVYKILSTHLLESDSLTPEYLKSKNQLEFCCHMLRGTIDPKEPSTYEYVKFIGNFKSLNSVSSSAHNGFEGTIQRTHRPSYEDRVCFVATVRLATPQFIKEMCTVEEPNEEFTSRHSLEWKFLFLDHRAPPIIGYLPFEVLGTSGYDYYHVDDLENLAKCHEHLMQYGKGKSCYYRFLTKGQQWIWLQTHYYITYHQWNSRPEFIVCTHTVVSYAEVRAERRRELGIEESLPETAADKSQDSGSDNRINTVSLKEALERFDHSPTPSASSRSSRKSSHTAVSDPSSTPTKIPTDTSTPPRQHLPAHEKMVQRRSSFSSQSINSQSVGSSLTQPVMSQATNLPIPQGMSQFQFSAQLGAMQHLKDQLEQRTRMIEANIHRQQEELRKIQEQLQMVHGQGLQMFLQQSNPGLNFGSVQLSSGNSSNIQQLAPINMQGQVVPTNQIQSGMNTGHIGTTQHMIQQQTLQSTSTQSQQNVLSGHSQQTSLPSQTQSTLTAPLYNTMVISQPAAGSMVQIPSSMPQNSTQSAAVTTFTQDRQIRFSQGQQLVTKLVTAPVACGAVMVPSTMLMGQVVTAYPTFATQQQQSQTLSVTQQQQQQSSQEQQLTSVQQPSQAQLTQPPQQFLQTSRLLHGNPSTQLILSAAFPLQQSTFPQSHHQQHQSQQQQQLSRHRTDSLPDPSKVQPQ
For B1, the binding result with ARNT-FLAG is listed as “no binding”; in the assay with BMAL1-FLAG, “binds”.
